Data reported in PubChem BioAssay AID493208 (National Center for Advancing Translational Sciences (NCATS), 2011).
Out of some 44,000 compounds screened, about 340 (0.77%) were called active. Not shown: some 5% with an inconclusive outcome. Calls come from the whole dose curve; as a rule, active = well fitted inhibition curve with a large enough effect; inconclusive = small, poorly fitted or top-dose-only effect; inactive = flat fitted curve, though single readings scatter. The list shows a part of the results.

test: Acumen qHTS Assay for Inhibitors of the mTORC1 Signaling Pathway in MEF (Tsc2-/-, p53-/-) Cells: Sytravon; settings: phospho-rpS6 immunofluorescence/PI, 24 h; series mostly up to 38.3 µM; activity change, negative = inhibition: at the top concentration;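 note: plate controls were DMSO for no effect and rapamycin for full effect; nearly all actives have a fitted effect of over 50% in size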
In short: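 Tsc2-/-, p53-/- mouse embryonic fibroblasts (empty-vector line) exposed to compound 24 hrs at 37 C, fixed, immunostained for phospho-rpS6 and counterstained with propidium iodide. Acumen laser scanning gives % positive cells from Alexa 488/PI ratio, thresholded using 7.5 nM rapamycin; PI count gives viability.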

Structure (SMILES) | activity change, negative = inhibition
COc1ccc(OC)c(NC(=O)c2ccc3c(Cl)c4c(nc3c2)CCCC4)c1 | inactive: -3.15%
COc1cc(OC)c(NC(=O)N2CCC(CN3CCCC3)CC2)cc1Cl | inactive: -5.93%
CCOC(=O)c1ccc(Nc2nn3c(=O)c4ccccc4nc3s2)cc1 | inactive: -1.47%
CCCCN(C)C(=O)Cn1cnc2sc(C)c(S(=O)(=O)N3CCC(C)CC3)c2c1=O | inactive: 0.558%
Cc1nn(-c2ccccc2)c2c1N(CC(=O)N1CCN(c3ccccc3F)CC1)C(=O)CS2 | inactive: -1.54%
Cc1ccc(CNC(=O)c2ccc(CS(=O)(=O)Cc3ccc(C)cc3)o2)cc1 | inactive: 3.32%
Cc1ccc(CNc2ccc3cc(S(=O)(=O)N4CCCCC4)ccc3n2)cc1 | inactive: -5.76%
CCN(CC)c1ccc(C2Nc3ccccc3-c3cc(C)nn32)cc1 (stereo unspecified) | inactive: 0.607%
CCCCN(CCCNC(=O)c1cc(Nc2ccccc2OC)nc2ccccc12)c1ccccc1 | inactive: -14.4%
COc1ccc(C2(CNC(=O)C(=O)Nc3ccccc3C)CCCC2)cc1OC | inactive: -11%
Cc1ccc(OCCCn2c(-c3ccc(Cl)cc3)nc3ccccc3c2=O)c(C)c1 | inactive: 1.57%
Cc1ccc(NC(=O)C2CCCN(S(=O)(=O)c3c(C)noc3C)C2)cc1 (stereo unspecified) | inactive: -3.24%
Clc1ccc(-n2c(Cc3ccccc3)nnc2SCc2nc(-c3cccs3)no2)cc1 | inactive: -1.19%
Cc1cccc(-n2c(=O)c3c4c(sc3n3c(C)nnc23)CCCC4)c1 | inactive: -1.16%
COc1ccc(NC(=O)c2oc3ccccc3c2NC(=O)C2CCCCC2)c(OC)c1 | inactive: -0.402%
Nc1c(C(=O)Nc2ccccc2)sc2nc3c(cc12)CN(Cc1ccccc1)CC3 | inactive: -12%
CCOc1cc(C#N)c(-n2nnc3c(sc4nc(C)cc(C)c43)c2=O)cc1OCC | inactive: 7.07%
CCCCN(C)C(=O)c1ccc2c(c1)N(Cc1cccc(F)c1)C(=O)c1ccccc1S2 | inactive: -8.39%
CCOC(=O)c1scc(-c2ccc(C)cc2)c1S(=O)(=O)Nc1cc(OC)ccc1OC | inactive: -2.22%
Cc1cc(C)c(/C=C/c2onc(C)c2S(=O)(=O)N2CCC(C(=O)NCCc3ccccc3)CC2)c(C)c1 | inactive: -0.732%
COC(=O)c1ccc(NC(=O)Cn2cnc3c2c(=O)n(C)c(=O)n3C)cc1 | inactive: -3.37%

Structure (SMILES) | activity change, negative = inhibition
Cc1cccc(N(CC(=O)NCCSCc2ccccc2)S(=O)(=O)c2ccccc2)c1C | inactive: -13.8%
CCc1cccc(C)c1NC(=O)C1CCCN1S(=O)(=O)c1cccc2nsnc12 (stereo unspecified) | inactive: 1.76%
Cc1ccc(C(=O)c2cn(Cc3ccccc3)c3nc(C)ccc3c2=O)cc1 | inactive: -2.5%
Cc1nc(N2CCCC2)c2c(C(=O)N3CCN(c4cc(Cl)ccc4C)CC3)c(C)oc2n1 | inactive: -4.57%
CCn1c(=O)c(=O)n(CC)c2cc(S(=O)(=O)Nc3ccc(C)cc3)ccc21 | inactive: -0.261%
CCCC(=O)N1CCN(c2nc3ccc(F)cc3s2)CC1 | inactive: -5.19%
COc1cc(OC)c(NC(=O)c2cc3c(=O)oc4ccc(C)cc4c3s2)cc1Cl | inactive: -1.15%
Cc1ccc(-n2ncc3c(NCCO)ncnc32)cc1Cl | inactive: 9.15%
Cc1cc(NC(=O)c2cc(-c3ccc(Cl)cc3)on2)n(-c2ccccc2)n1 | inactive: -13%
COc1ccc(CNC(=O)Cc2ccc(NC(=O)N3CCSc4ncccc43)cc2)cc1OC | inactive: -4.01%
COC(=O)c1cc2oc3ccccc3c2n1CC(=O)Nc1ccc(C)c(F)c1 | inactive: -3.18%
COc1ccc(-c2cc(C(=O)Nc3cccnc3)no2)cc1OC | inactive: -0.149%
COc1cc(NC(=O)c2ccc3oc(=O)c(S(=O)(=O)c4ccccc4)cc3c2)cc(OC)c1 | inactive: -2.8%
COc1ccc(S(=O)(=O)Nc2cccc(-c3ccc(N4CCC(C)CC4)nn3)c2)c(OC)c1 | inactive: 0.603%
CCOc1ccc(NC(=O)Cn2c(=O)n(-c3cccc(Cl)c3)c(=O)c3c2c2cc(C)ccc2n3C)cc1 | inactive: 0%
CCOc1cccc(C2c3[nH]c4ccccc4c3CCN2C(=O)CSc2ccccc2)c1 (stereo unspecified) | inactive: -25.5%
Cc1cccc(C(=O)N2CCc3cc(CNC(=O)COc4ccc(Cl)cc4)ccc32)c1 | inactive: -12.5%
CC(C)c1ccc(NC(=O)C2CCN(S(=O)(=O)c3cccc4nonc34)CC2)cc1 | inactive: -27.5%
Cc1ccccc1Nc1c(-c2ccc(Cl)cc2)nc2c(C)cccn12 | inactive: -9.2%
Cc1ccc(N2C(=O)CSC23C(=O)N(Cc2ccccc2F)c2ccccc23)cc1F (stereo unspecified) | inactive: -3.28%
COc1ccc(NC(=O)Cn2c(=O)n(CCc3ccccc3)c(=O)c3c4c(sc32)CCCC4)cc1 | inactive: 2.53%

Structure (SMILES) | activity change, negative = inhibition
Cc1ccccc1NC(=O)CSc1cn(CC(=O)N2CCCCCC2)c2ccccc12 | inactive: 2.19%
Cc1nc(SCC(=O)Nc2ccccc2C)cc(-c2ccccc2)n1 | inactive: 2.81%
COc1cc2c(=O)c(C(=O)c3ccc(C)c(C)c3)cn(Cc3ccc(F)cc3)c2cc1OC | inactive: -6.35%
CCOc1ccccc1NC(=O)c1ccc2c(c1)CCN2S(=O)(=O)c1ccc(C)cc1 | inactive: 1.86%
CCOC(=O)c1c(C)[nH]c(C)c1S(=O)(=O)NCC(=O)Nc1ccc(C)c(N(C)C)c1 | inactive: -4.65%
CCOc1cc(CNC(=O)Cn2c(=O)c3cccn3c3ccc(F)cc32)cc(OCC)c1OCC | inactive: 8.45%
CCSc1nnc2c(n1)OC(c1cc(OC)c(OC)c(OC)c1)Nc1ccccc1-2 (stereo unspecified) | inactive: -9.21%
CCC(CC)c1nn2c(=O)cc(COc3ccc(NC(=O)c4ccccc4C)cc3)nc2s1 | inactive: 6.85%
COc1cc(NS(=O)(=O)c2ccc(NC(=O)c3cccc(F)c3)cc2)nc(OC)n1 | inactive: 8.49%
CCC1CN(S(=O)(=O)c2cc(-c3cc(C)no3)ccc2C)c2cc(Cl)ccc2O1 (stereo unspecified) | inactive: -7.66%
COc1cc(NC(=O)CC2C(=O)OCCN2Cc2ccccc2)cc(OC)c1 (stereo unspecified) | inactive: -14.6%
Cc1ccccc1NC(=O)c1ccc2[nH]c(C)c(C)c2c1 | inactive: -3.14%
COc1cccc(Cn2c(=O)cc(C)c3c(C)nn(C)c32)c1 | inactive: -9.96%
CCCc1nn2c(=O)cc(COC(=O)c3cccc(NC(=O)c4cccs4)c3)nc2s1 | inactive: 9.15%
CCc1cccc(C)c1NC(=O)CCS(=O)(=O)c1cc(Br)cc2c1N(C(=O)C1CC1)CC2 | inactive: 1.34%
Cc1c(Cl)cccc1NC(=O)Cn1c(=O)n(Cc2ccco2)c(=O)c2sc3ccccc3c21 | inactive: -9.94%
Cc1c(C(=O)NCc2ccc(Cl)cc2)sc2nc3n(c(=O)c12)CCCCC3 | inactive: 5.88%
COc1ccc(S(=O)Cc2ccc(C(=O)N3CCN(c4cccc(C)c4C)CC3)o2)cc1 (stereo unspecified) | inactive: -28.3%
O=C(Nc1ccc(C(=O)OCc2cc(=O)n3c4c(sc3n2)CCCC4)cc1)c1ccc(F)cc1 | inactive: 2.07%
